Source: the supplement of paper PMC10126150
Values marked as one replicate rest on one cluster of the flow cell; about a third of the high ones do not repeat.

Tested on: ATP
Experiment: switch fluorescence ratio, 500 uM ATP over buffer (Cy3 cluster intensity, sum of 5 cycles each) (fold (ratio)); higher = stronger signal-on switching upon ATP binding; sequences stand for … in TCGTCGGCAGCGTCAGATGTGTATAAGAGACAGTTTTTTTTTTTTTTTTTTTTTTTTT…TC
Conditions: aptamer strand: ATP DNA aptamer (quencher-CACCTGGGGGAGTATTGCGGAGGAAGG + anchor), 100 nM annealed; ATP concentration: 500 uM; one replicate
Outline: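 Switching-strand clusters labelled with Cy3 on a modified Illumina MiSeq flow-cell were annealed to 100 nM quencher-labelled ATP aptamer, imaged in selection buffer, and re-imaged after 15 min with 500 uM ATP at 22 °C. This was done over five cycles with NaOH stripping and re-annealing in between. The fluorescence ratio is summed target-cycle over summed buffer-cycle Cy3 intensity per cluster, averaged per switch-domain sequence, excluding clusters outside 100-1000 RFU.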
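Further: ATP exposure 15 min at 22 °C before imaging.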

CGGGCACGGT gave a switch fluorescence ratio of 1.02.

Work on ATAGCGGACG yielded a switch fluorescence ratio of 1.03.

In the case of GGCTAGTAGT, the switch fluorescence ratio is reported as 0.952.

GCTCATGTGG showed a switch fluorescence ratio of 0.998.

In the case of CGGGGGTACT, the switch fluorescence ratio is reported as 1.03.

With CGTACTGAAC the switch fluorescence ratio was 1.1.

AAGAATGCGC showed a switch fluorescence ratio of 0.961.

CGAGACGCCT gave a switch fluorescence ratio of 0.977.

TTGGACGTCC was tested, and the switch fluorescence ratio was 1.03.

With CACTTTTTGA the switch fluorescence ratio was 0.932.

With GTTATTATAT the switch fluorescence ratio was 0.996.

For CCGTGACGTG, the switch fluorescence ratio was 1.05.

For TTAACTAATT, the switch fluorescence ratio was 1.06.

AATAGTCGCT gave a switch fluorescence ratio of 1.

AACTTGGGCC was tested, and the switch fluorescence ratio was 1.01.

CAGCCAAAA gave a switch fluorescence ratio of 1.1.

GATAGTTTCA showed a switch fluorescence ratio of 0.982.

In the case of TCCGCATGGT, the switch fluorescence ratio is reported as 2.88.

GGCTAAAGC showed a switch fluorescence ratio of 1.03.

TCGTCTGGGA showed a switch fluorescence ratio of 1.04.

Work on TACGAGCGGG yielded a switch fluorescence ratio of 1.02.

GAACATGCCG showed a switch fluorescence ratio of 1.

TTCCGAATGG showed a switch fluorescence ratio of 1.11.

CTTGTTGGGA showed a switch fluorescence ratio of 1.

In the case of ACTTAATATG, the switch fluorescence ratio is reported as 0.969.

For TATTTGCTT, the switch fluorescence ratio was 1.

GGCGGATGTC showed a switch fluorescence ratio of 1.

ACCTCCCAA gave a switch fluorescence ratio of 5.46.

GTTGAGCCTA was tested, and the switch fluorescence ratio was 1.06.

In the case of ACCTTGCATC, the switch fluorescence ratio is reported as 1.35.

TCACGAAAAC showed a switch fluorescence ratio of 1.34.

GACGAGGGGT gave a switch fluorescence ratio of 1.

TGATGAATAG showed a switch fluorescence ratio of 1.03.

With TAAGGACTC the switch fluorescence ratio was 1.06.

ATGCGCTAAA gave a switch fluorescence ratio of 0.991.

In the case of AAAGCGTTGT, the switch fluorescence ratio is reported as 0.989.

TTTTAGGTCT gave a switch fluorescence ratio of 1.04.

AAGTCTCCTG was tested, and the switch fluorescence ratio was 0.989.

For AACTGTTTTG, the switch fluorescence ratio was 1.

With GCATTTAATA the switch fluorescence ratio was 1.11.

Work on GGAAATGGCC yielded a switch fluorescence ratio of 0.988.

Sequence TACTGTCTGT has a switch fluorescence ratio of 0.984.

Work on GTATACGGGT yielded a switch fluorescence ratio of 1.06.

Sequence TTTATGGCGC has a switch fluorescence ratio of 0.994.

GGCAGTACAC was tested, and the switch fluorescence ratio was 1.22.

GTCCCTGAAA was tested, and the switch fluorescence ratio was 0.981.

AGTGGTTAC was tested, and the switch fluorescence ratio was 1.03.

Sequence ACCTATATGT has a switch fluorescence ratio of 1.06.

GGTTTCTTAA gave a switch fluorescence ratio of 0.964.

TGGACAGGCC showed a switch fluorescence ratio of 1.06.

Work on CAGGTGAAAC yielded a switch fluorescence ratio of 1.03.

With GGCAACCGCA the switch fluorescence ratio was 1.07.

ATAGAAACT gave a switch fluorescence ratio of 1.21.

Work on CAGCAACGGG yielded a switch fluorescence ratio of 1.08.

For GCATGTTTAT, the switch fluorescence ratio was 0.961.

In the case of TAGAGCGAGA, the switch fluorescence ratio is reported as 0.992.

ACCGGCGGGT gave a switch fluorescence ratio of 1.16.

Work on TCTCCTCAGT yielded a switch fluorescence ratio of 1.5.

AATAAGTGTC gave a switch fluorescence ratio of 1.2.

Sequence CCACGAAGGA has a switch fluorescence ratio of 1.02.

GTCATTAGTA gave a switch fluorescence ratio of 1.

Work on CAGTGGGGAG yielded a switch fluorescence ratio of 1.05.

TCTCCAATGT gave a switch fluorescence ratio of 1.28.

Sequence CGTTATCGTT has a switch fluorescence ratio of 0.979.

ATTGATAGGC was tested, and the switch fluorescence ratio was 1.1.

In the case of TTCGGATTTA, the switch fluorescence ratio is reported as 1.02.

GTTCTGTGGG showed a switch fluorescence ratio of 0.939.

TCGTGCGCTT was tested, and the switch fluorescence ratio was 1.32.

For CAGATGAACC, the switch fluorescence ratio was 0.997.

AGCTTCTTGT was tested, and the switch fluorescence ratio was 1.02.

ATTATGTGGT was tested, and the switch fluorescence ratio was 0.979.

With AATGAGCCA the switch fluorescence ratio was 1.

GAGTTCTTTT was tested, and the switch fluorescence ratio was 1.

For AAGCCACTGG, the switch fluorescence ratio was 1.01.

Work on AATATGCTAA yielded a switch fluorescence ratio of 0.998.

TTGACATTCG showed a switch fluorescence ratio of 0.982.

In the case of ATCTGGCGC, the switch fluorescence ratio is reported as 0.97.

Work on CGCGCCCGGG yielded a switch fluorescence ratio of 1.07.

With GCTATCTCGT the switch fluorescence ratio was 0.963.

TAAAAGAAGT showed a switch fluorescence ratio of 1.03.

Work on ACGGGTGATG yielded a switch fluorescence ratio of 0.985.

For TAACTGTGCA, the switch fluorescence ratio was 0.967.

For CAAGAACTTT, the switch fluorescence ratio was 1.02.

In the case of AAGGCATTGA, the switch fluorescence ratio is reported as 1.04.

TATACTGTCA was tested, and the switch fluorescence ratio was 1.11.

CTTAGTCCAG gave a switch fluorescence ratio of 1.01.

Work on GGTTAAGACT yielded a switch fluorescence ratio of 1.02.

ATCCGTCTAT showed a switch fluorescence ratio of 1.09.

Work on TTCAACGAGT yielded a switch fluorescence ratio of 1.01.

ACATCGTAAT showed a switch fluorescence ratio of 1.09.

With AAGGGTATCT the switch fluorescence ratio was 1.

With TCCACCGAA the switch fluorescence ratio was 1.77.

With GAAGGGAAGG the switch fluorescence ratio was 1.01.

CCTGATGCTA was tested, and the switch fluorescence ratio was 1.18.

In the case of GCAGGAGCTC, the switch fluorescence ratio is reported as 1.01.

With CTGTACGGCT the switch fluorescence ratio was 1.01.

With GTCATGACGG the switch fluorescence ratio was 1.

Work on GGGCTTAGAC yielded a switch fluorescence ratio of 1.03.

With AAATACGCAT the switch fluorescence ratio was 1.4.

With GTTGTCTAGT the switch fluorescence ratio was 0.966.

GACTGTATTG was tested, and the switch fluorescence ratio was 0.977.

GCCGCTCATG was tested, and the switch fluorescence ratio was 1.05.

AGCGTACGG gave a switch fluorescence ratio of 1.02.

For ACGATTGATT, the switch fluorescence ratio was 1.01.

With CTGCAGGTCA the switch fluorescence ratio was 1.02.

GTGGGGAAA gave a switch fluorescence ratio of 1.3.

CTGTTGATCT showed a switch fluorescence ratio of 0.991.

For ATCGGTTATG, the switch fluorescence ratio was 0.989.

CTAGCGAGTG was tested, and the switch fluorescence ratio was 0.962.

Work on TGGTGTGGT yielded a switch fluorescence ratio of 1.07.

In the case of TTGGAAGTT, the switch fluorescence ratio is reported as 1.

Work on TAGAGAACGA yielded a switch fluorescence ratio of 1.01.

In the case of TATATATCTT, the switch fluorescence ratio is reported as 1.03.

With GATTGTCTGT the switch fluorescence ratio was 1.01.

TGTAGTAGT gave a switch fluorescence ratio of 0.996.

For TAGCAAGGCC, the switch fluorescence ratio was 1.15.

With AAATGGGTAA the switch fluorescence ratio was 0.94.

CGCTGAGCCG was tested, and the switch fluorescence ratio was 1.02.

In the case of CGCTGGGATC, the switch fluorescence ratio is reported as 1.06.

Work on AATGCCAGTT yielded a switch fluorescence ratio of 1.04.

TATTGCTACG was tested, and the switch fluorescence ratio was 0.999.

Sequence GTGATGTGCG has a switch fluorescence ratio of 0.908.

Work on ACGGATGGCA yielded a switch fluorescence ratio of 0.93.

Sequence TCTGAAAGT has a switch fluorescence ratio of 0.991.

Sequence ATATGTATCT has a switch fluorescence ratio of 1.02.

With TCTGCCTGGG the switch fluorescence ratio was 0.998.

GCGGAATCTT was tested, and the switch fluorescence ratio was 0.997.

In the case of ATATGTTTTA, the switch fluorescence ratio is reported as 1.

Work on TTGATGCATT yielded a switch fluorescence ratio of 0.943.

TTAATTACTA showed a switch fluorescence ratio of 0.997.

In the case of TTCCGGAGTA, the switch fluorescence ratio is reported as 3.78.

In the case of TGGTTGATA, the switch fluorescence ratio is reported as 0.981.

Work on TGCGGGTTCG yielded a switch fluorescence ratio of 1.08.

TGGTTCTGAT gave a switch fluorescence ratio of 0.927.

In the case of TGTGAGCCGG, the switch fluorescence ratio is reported as 0.977.

In the case of GGTGCAATCG, the switch fluorescence ratio is reported as 1.09.

For TAACCTGGAT, the switch fluorescence ratio was 1.21.

With TTGGACAGCA the switch fluorescence ratio was 1.03.

AAAAGAGATA was tested, and the switch fluorescence ratio was 0.969.

Sequence ATATCAGCCA has a switch fluorescence ratio of 0.99.

In the case of GCAATTGGAC, the switch fluorescence ratio is reported as 1.77.

Work on GGTACTAAGA yielded a switch fluorescence ratio of 1.05.

For GACCCGGTGA, the switch fluorescence ratio was 1.82.

In the case of ACTAGTTGAA, the switch fluorescence ratio is reported as 1.01.

Work on ACGTAGGTAG yielded a switch fluorescence ratio of 1.

With ATTAGTGTA the switch fluorescence ratio was 1.02.

CGTCACGTGC gave a switch fluorescence ratio of 1.08.

Sequence AGTTGACAGA has a switch fluorescence ratio of 1.01.

For ACGTATTTGA, the switch fluorescence ratio was 1.14.

With GTTTACGCTT the switch fluorescence ratio was 0.99.

Work on GGTATGTATT yielded a switch fluorescence ratio of 1.

TCACTTAC showed a switch fluorescence ratio of 1.46.

Sequence ATTTACTCTT has a switch fluorescence ratio of 1.02.
